{
  "source": "paper PMC11189308",
  "about": "“Vimentin filaments integrate low-complexity domains in a complex helical structure” (Nature Structural & Molecular Biology, 2024)",
  "proteins": {"B1": {"name": "human vimentin ΔT ([…]) (domain or fragment)", "chain": "not shown", "notes": "vimentin, human, […] (lacks the tail domain); Cloned in pEt24d(+); also called VIF-ΔT; VIFs-ΔT"}},
  "molecular_target": "the molecule itself",
  "test": "cryo-EM structure; single-particle reconstruction of tail-less filaments assembled by dialysis against 10 mM Tris HCl pH 7.5 with 100 mM KCl; helical symmetry imposed after refinement; 8.4 Å map",
  "data": [
    {"protein": "B1", "values": [
      {"measurement": "binding result", "result": "binds"}
    ]}
  ]
}
